# In the supplement of paper PMC9174493:
# This is one part of the list. Single values of this set are uncertain. Values with irradiation are relative to irradiated vehicle.
# Experiments:
# A549-Dual [1] = test: NF-kB reporter (SEAP) activity, viability-corrected, relative to vehicle (fold change vs vehicle); higher = more activation of STING-IRF / NF-kB immune response reporter; conditions: 10 µM
# A549-Dual [2] = test: ISRE reporter (Lucia luciferase) activity, viability-corrected, relative to vehicle (fold change vs vehicle); higher = more activation of STING-IRF / NF-kB immune response reporter; conditions: 10 µM
# 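Throughout, for NF-kB reporter (SEAP) activity, viability-corrected, relative to vehicle: viability correction based on the alamar blue assay, with concentrations leaving 10% survival or less dropped.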
Structure (SMILES),NF-kB reporter (A549-Dual [1]; irradiation: 8 Gy/4 fr),NF-kB reporter (A549-Dual [1]; irradiation: none),ISRE reporter (A549-Dual [2]; irradiation: 8 Gy/4 fr),ISRE reporter (A549-Dual [2]; irradiation: none)
"NCC(O)c1ccc(O)c(O)c1 (single isomer, unassigned; (-)) [(-)-Norepinephrine]",1.01,1.18,0.986,0.973
CC(N)(Cc1ccc(O)c(O)c1)C(=O)O (configuration not stated) [Methyldopa],1,1.35,0.841,0.761
CC1=C(C(=O)O)N2C(=O)C(NC(=O)C(N)c3ccc(O)cc3)C2SC1.O (configuration not stated) [Cefadroxil hydrate],0.71,0.815,0.694,0.744
CN(C)CCC=C1c2ccccc2C=Cc2ccccc21.Cl [Cyclobenzaprine HCl],0.755,1.63,0.828,1.2
CC(C)NNC(=O)c1ccncc1 [Iproniazid],0.707,0.895,0.59,0.689
Nc1ncnc2c1ncn2C1OC(COP(=O)(O)OP(=O)([O-])OP(=O)([O-])O)C(O)C1O.[Na+].[Na+] (configuration not stated),0.697,0.529,0.677,0.651
CCCC1CC(C(=O)NC(C(C)Cl)C2OC(SC)C(O)C(O)C2O)N(C)C1.Cl.O (configuration not stated) [Clindamycin alcoholate],0.752,0.801,0.878,0.729
O=C(CCCN1CCN(c2ccccn2)CC1)c1ccc(F)cc1 [Azaperone],0.803,1.33,0.72,0.72
Cl.NCC(=O)CCC(=O)O [5-Aminolevulinic acid HCl],1.18,1.16,1.03,1.16
COc1nccnc1NS(=O)(=O)c1ccc(N)cc1 [Sulfalene(SMPZ)],1.39,1.55,1.5,1.03
CCCC(=O)Nc1ncnc2c1ncn2C1OC2COP(=O)([O][Na])OC2C1OC(=O)CCC (configuration not stated) [Dibutyryl-cAMP (Bucladesine)],1.35,0.638,1.54,0.598
CC(=O)SCC(Cc1ccccc1)C(=O)NCC(=O)OCc1ccccc1 (configuration not stated) [Racecadotril],0.758,0.996,0.704,0.788
Clc1ccc(CSC(Cn2ccnc2)c2ccc(Cl)cc2Cl)cc1.O=[N+]([O-])O (configuration not stated) [Sulconazole Nitrate],0.523,0.913,0.322,0.542
COc1ccc2cc3[n+](cc2c1OC)CCc1cc2c(cc1-3)OCO2 [Berberine],0.591,1.3,0.207,0.85
COc1ccc(C(C)=O)c(O)c1 [Paeonol],1.07,0.917,1.12,0.801
CCC1OC(=O)C(C)C(OC2CC(C)(OC)C(O)C(C)O2)C(C)C(OC2OC(C)CC(N(C)C)C2O)C(C)(O)CC(C)CN(C)C(C)C(O)C1(C)O.O.O (configuration not stated) [Azithromycin Dihydrate],0.567,0.932,0.783,1.2
COc1cc(NS(=O)(=O)c2ccc(N)cc2)ncn1 [Sulfamonomethoxine],0.917,1.1,0.978,1.04
OCc1ccccc1O [2-Hydroxybenzyl alcohol],0.943,1.02,0.848,0.647
CC1=CCC(C(C)(C)O)CC1 (stereo not drawn) [α-Terpineol],1.08,0.722,0.946,0.695
CC(O)C1C(=O)N2C(C(=O)O)=C(SC3CNC(C(=O)N(C)C)C3)C(C)C12 (configuration not stated) [Meropenem],0.822,0.937,0.763,0.683
Cl.Fc1ccc(C2CCNCC2COc2ccc3c(c2)OCO3)cc1 (configuration not stated) [Paroxetine HCl],0.685,0.992,0.794,1.05
CN(C)C1C(O)=C(C(N)=O)C(=O)C2(O)C(O)=C3C(=O)c4c(O)ccc(Cl)c4C(O)C3CC12.Cl (configuration not stated) [Demeclocycline HCl],0.606,0.903,0.947,1.52
Nc1ccc(S(=O)(=O)Nc2ccc(Cl)nn2)cc1 [Sulfachloropyridazine],0.665,0.944,0.69,0.661
Cc1ccccc1OCC(O)CO (configuration not stated) [Mephenesin],0.614,0.591,0.858,0.656
CN(C)CCc1c[nH]c2ccc(Cn3cncn3)cc12.O=C(O)c1ccccc1 [Rizatriptan Benzoate],0.819,1.18,0.844,1.01
CC(CCC(=O)O)C1CCC2C3C(=O)CC4CC(=O)CCC4(C)C3CC(=O)C12C (configuration not stated) [Dehydrocholic acid],0.91,0.984,0.915,0.771
CC(=O)Oc1ccc(C(c2ccc(OC(C)=O)cc2)c2ccccn2)cc1 [Bisacodyl],0.807,0.76,0.561,0.533

Structure (SMILES),NF-kB reporter (A549-Dual [1]; irradiation: 8 Gy/4 fr),NF-kB reporter (A549-Dual [1]; irradiation: none),ISRE reporter (A549-Dual [2]; irradiation: 8 Gy/4 fr),ISRE reporter (A549-Dual [2]; irradiation: none)
C#CC1(O)CCC2C3CCC4=CCCCC4C3C(=C)CC21CC (configuration not stated) [Desogestrel],0.6,0.738,0.67,0.806
COC(=O)c1cc(OC)c2c(c1-c1c(CO)cc(OC)c3c1OCO3)OCO2 [Bicyclol],0.713,0.771,0.659,0.645
CC1c2cccc(O)c2C(=O)C2=C(O)C3(O)C(=O)C(C(N)=O)=C(O)C(N(C)C)C3C(O)C21.O (configuration not stated) [Doxycycline monohydrate],0.59,1.01,0.434,0.895
CCC(=O)O.CCC(=O)O.O=C(Nc1cccc(C2=NCCN2)c1)Nc1cccc(C2=NCCN2)c1 [Imidocarb dipropionate],0.459,0.702,0.482,0.538
Nc1ccn(CC(CO)OCP(=O)(O)O)c(=O)n1 (configuration not stated) [Cidofovir],0.813,0.889,0.609,0.915
CCCC(CCC)C(=O)OC1CC2CCC(C1)[N+]2(C)C.[Br-] (configuration not stated) [Anisotropine Methylbromide],0.971,0.693,1.02,0.651
Nc1ncnc2c1ncn2C1OC(COP(=O)(O)O)C(O)C1O.O (configuration not stated) [Adenosine 5'-monophosphate monohydrate],0.604,0.534,0.644,0.566
CCCCC(O)c1ccccc1 (configuration not stated) [Fenipentol],0.695,0.512,0.648,0.44
CCN(CC)Cc1cc(Nc2ccnc3cc(Cl)ccc23)ccc1O [Amodiaquine],0.792,0.841,1.03,1.32
N[C@@H](CC(=O)O)C(=O)O [L-aspartic Acid],0.971,0.704,1.01,0.642
COS(=O)(=O)[O-].COc1cc(N)cn[n+]1-c1ccccc1 [Amezinium (methylsulfate)],0.498,0.949,0.347,0.57
Cc1ccc(/C(=C\CN2CCCC2)c2ccccn2)cc1.Cl.O [Triprolidine Hydrochloride],0.888,1.46,0.732,0.911
CC(=O)NCC1CN(c2ccc(N3CCOCC3)c(F)c2)C(=O)O1 (configuration not stated) [Linezolid],0.491,0.943,0.439,0.735
CCC(=O)OC1CC(=O)OC(C)C/C=C/C=C/C(O)C(C)CC(CC=O)C(OC2OC(C)C(OC3CC(C)(O)C(OC(=O)CC)C(C)O3)C(N(C)C)C2O)C1OC (configuration not stated) [Midecamycin],0.653,1.13,0.522,0.792
COC1/C=C/OC2(C)Oc3c(C)c(O)c4c(O)c(c5c(nc6cc(C)ccn65)c4c3C2=O)NC(=O)/C(C)=C\C=C\C(C)C(O)C(C)C(O)C(C)C(OC(C)=O)C1C (configuration not stated) [Rifaximin],0.809,1.05,0.932,1.15
CC(c1ncncc1F)C(O)(Cn1cncn1)c1ccc(F)cc1F (configuration not stated) [Voriconazole],0.688,0.912,0.711,0.652
COCCc1ccc(OCC(O)CNC(C)C)cc1.COCCc1ccc(OCC(O)CNC(C)C)cc1.O=C(O)C(O)C(O)C(=O)O (configuration not stated) [Metoprolol Tartrate],1.03,1.05,1,0.852
CCCCCOc1ccccc1/C(=C\SC)n1ccnc1.Cl [Neticonazole Hydrochloride],0.282,0.488,0.099,0.279
CCC(=O)OC(OP(=O)(CCCCc1ccccc1)CC(=O)N1CC(C2CCCCC2)CC1C(=O)[O-])C(C)C.[Na+] (configuration not stated) [Fosinopril Sodium],0.9,1.07,0.961,0.912
CN1CCN2c3ccccc3Cc3ccccc3C2C1.Cl (configuration not stated) [Mianserin HCl],0.654,0.833,0.953,1.1
CC1(COc2ccc(N3CCC(Oc4ccc(OC(F)(F)F)cc4)CC3)cc2)Cn2cc([N+](=O)[O-])nc2O1 (configuration not stated) [Delamanid],0.845,1,0.744,0.912
O=C([O-])/C=C/c1ccc(Cn2ccnc2)cc1.[Na+] [Ozagrel sodium],0.729,0.654,0.713,0.58
CCOC(=O)C(CCc1ccccc1)NC(C)C(=O)N1Cc2ccccc2CC1C(=O)O.Cl (configuration not stated) [Quinapril HCl],0.835,1.11,0.673,0.594
Cn1c(=O)c2c(ncn2CC(O)CO)n(C)c1=O (configuration not stated) [Dyphylline],1.02,1.17,0.974,0.908
CNCCCC12CCC(c3ccccc31)c1ccccc12.Cl [Maprotiline HCl],1.15,1.04,1.25,1.96
CCCS(=O)c1ccc2nc(NC(=O)OC)[nH]c2c1 (configuration not stated) [Albendazole Oxide],0.826,1.36,0.732,1.83
